Source: the supplement of paper PMC10369915
The other results are listed elsewhere or left out. Cut-off read from the data, not from the text of the source: active = 3.2 or more and inactive = the rest. Only a few entries rise above the background.

Assays:
Test in all cases: enrichment score (SH2-bound / input frequency) (ratio); bacterial display of known human phosphotyrosine sites (pTyr-Var adds point mutants) read by sequencing; higher = stronger binding; tyrosines were phosphorylated by kinases first
Settings in all cases: peptide library: pTyr-Var
SHP2 C-SH2 domain E139D = target: SHP2 C-SH2 domain E139D
[1] = target: SHP2 C-SH2 domain wild-type
SHP2 N-SH2 domain L43F = target: SHP2 N-SH2 domain L43F
SHP2 N-SH2 domain T42A = target: SHP2 N-SH2 domain T42A
SHP2 N-SH2 domain T52S = target: SHP2 N-SH2 domain T52S
[2] = target: SHP2 N-SH2 domain wild-type
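Note: displayed peptides selected on beads carrying the immobilized SH2 domain, with library peptides lacking any tyrosine serving as negative controls.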

Row | Binder | enrichment score (SHP2 C-SH2 domain E139D) | enrichment score [1] | enrichment score (SHP2 N-SH2 domain L43F) | enrichment score (SHP2 N-SH2 domain T42A) | enrichment score (SHP2 N-SH2 domain T52S) | enrichment score [2]
1 | DTFDPYLDIAL [USP36_Y268_V271I_YF] | inactive: 0.742 | inactive: 0.664 | inactive: 0.637 | inactive: 0.633 | inactive: 0.752 | inactive: 0.736
2 | IQTDGDRAPEA [UHMK1_Y197_Y197D] | inactive: 0.543 | inactive: 0.482 | inactive: 0.444 | inactive: 0.306 | inactive: 0.421 | inactive: 0.564
3 | QRALLYEDTLF [UNC13D_Y56_A59T_YF] | inactive: 0.931 | inactive: 0.996 | inactive: 1.54 | inactive: 1.81 | inactive: 1.09 | inactive: 1.3
4 | KRLKDYLMVLQ [USP25_Y425_T427M] | inactive: 2.2 | inactive: 2.29 | inactive: 2.41 | inactive: 2.24 | inactive: 2.72 | inactive: 1.93
5 | DTYDPYLDVAL [USP36_Y268] | inactive: 0.616 | inactive: 0.647 | inactive: 0.711 | inactive: 0.471 | inactive: 0.577 | inactive: 0.734
6 | DDDPEDRKFLE [UPF3B_Y160_Y160D] | inactive: 0.316 | inactive: 0.407 | inactive: 0.363 | inactive: 0.389 | inactive: 0.41 | inactive: 0.343
7 | KNRDVYSSDFF [USP24_Y2134_YF] | inactive: 0.837 | inactive: 0.855 | inactive: 0.69 | inactive: 0.67 | inactive: 0.695 | inactive: 0.835
8 | TVLWWYTGTRP [UGT1A1_Y337_R336W] | inactive: 1.34 | inactive: 1.22 | inactive: 1.05 | inactive: 1.24 | inactive: 1.33 | inactive: 1.35
9 | TTSQPYRCLCS [USH2A_Y534] | inactive: 1.15 | inactive: 0.959 | inactive: 0.667 | inactive: 0.859 | inactive: 1.04 | inactive: 1.14
10 | HNELFYEEAEH [VANGL1_Y345_YF] | inactive: 0.771 | inactive: 0.627 | inactive: 0.946 | inactive: 0.731 | inactive: 0.614 | inactive: 0.534
11 | DTYDPYLDIAL [USP36_Y268_V271I] | inactive: 0.467 | inactive: 0.677 | inactive: 0.76 | inactive: 0.691 | inactive: 0.488 | inactive: 0.747
12 | ASELGYVFQAI [UROD_Y133] | inactive: 0.702 | inactive: 0.873 | inactive: 0.828 | inactive: 0.65 | inactive: 0.906 | inactive: 0.904
13 | DSILVYQGKEQ [USH2A_Y1909] | inactive: 0.831 | inactive: 0.662 | inactive: 0.702 | inactive: 0.542 | inactive: 0.537 | inactive: 0.807
14 | KLKRSYSSRDI [USP8_Y717_P720R] | inactive: 0.485 | inactive: 0.395 | inactive: 0.424 | inactive: 0.474 | inactive: 0.493 | inactive: 0.52
15 | VSSSDYFSFVL [USP24_Y2138_Y2134S] | inactive: 0.799 | inactive: 0.88 | inactive: 0.789 | inactive: 0.832 | inactive: 0.915 | inactive: 0.754
16 | DGTIVYTGLET [USH2A_Y4487] | inactive: 0.714 | inactive: 1.88 | inactive: 1.97 | active: 5.67 | inactive: 2.33 | inactive: 0.901
17 | GADAIYDHINE [UQCR10_Y44] | inactive: 0.846 | inactive: 0.601 | inactive: 0.809 | inactive: 0.79 | inactive: 0.678 | inactive: 0.633
18 | KRLKDYLTVLQ [USP25_Y425] | inactive: 0.905 | inactive: 0.841 | inactive: 0.806 | inactive: 0.863 | inactive: 0.98 | inactive: 1.11
19 | DSMQSYDLDFP [UNC13B_Y243_YF] | inactive: 0.5 | inactive: 0.443 | inactive: 0.556 | inactive: 0.409 | inactive: 0.625 | inactive: 0.535

Row | Binder | enrichment score (SHP2 C-SH2 domain E139D) | enrichment score [1] | enrichment score (SHP2 N-SH2 domain L43F) | enrichment score (SHP2 N-SH2 domain T42A) | enrichment score (SHP2 N-SH2 domain T52S) | enrichment score [2]
20 | SHNELYYEEAE [VANGL1_Y344] | inactive: 0.462 | inactive: 0.578 | inactive: 0.457 | inactive: 0.404 | inactive: 0.391 | inactive: 0.617
21 | EPNSRYTCKLE [USH2A_Y3745_Y3747C] | inactive: 1.08 | inactive: 1.01 | inactive: 0.601 | inactive: 0.595 | inactive: 0.738 | inactive: 0.64
22 | SEELHYFVQNH [UQCRC2_Y207] | inactive: 0.769 | inactive: 0.674 | inactive: 0.919 | inactive: 0.743 | inactive: 0.932 | inactive: 0.854
23 | NSRFTYKLEVK [USH2A_Y3747_YF] | inactive: 0.482 | inactive: 0.694 | inactive: 0.487 | inactive: 0.483 | inactive: 0.526 | inactive: 0.573
24 | NFRPGYNNFFN [USH2A_Y467_YF] | inactive: 1.22 | inactive: 0.814 | inactive: 1.16 | inactive: 0.982 | inactive: 0.961 | inactive: 1
25 | IQTDGYRAPEA [UHMK1_Y197] | inactive: 0.561 | inactive: 0.518 | inactive: 0.365 | inactive: 0.602 | inactive: 0.694 | inactive: 0.622
26 | HNELYYEAAEH [VANGL1_Y345_E347A] | inactive: 0.596 | inactive: 0.685 | inactive: 0.562 | inactive: 0.403 | inactive: 0.57 | inactive: 0.625
27 | NSRYTCKLEVK [USH2A_Y3747_Y3747C] | inactive: 0.861 | inactive: 0.866 | inactive: 0.812 | inactive: 0.791 | inactive: 0.638 | inactive: 1
28 | AHLTEYLSTHY [UQCRC1_Y219_D215H] | inactive: 1.14 | inactive: 0.995 | inactive: 1.06 | inactive: 0.874 | inactive: 0.95 | inactive: 1.04
29 | NYRPGYNNFYN [USH2A_Y467] | inactive: 0.886 | inactive: 0.932 | inactive: 0.697 | inactive: 0.743 | inactive: 0.802 | inactive: 0.766
30 | CGQDPCIRELG [UROS_Y19_Y19C] | inactive: 0.885 | inactive: 0.759 | inactive: 0.668 | inactive: 0.7 | inactive: 0.911 | inactive: 0.685
31 | QRALLYEDTLY [UNC13D_Y56_A59T] | inactive: 1.05 | inactive: 1.12 | inactive: 0.907 | inactive: 0.771 | inactive: 0.874 | inactive: 1.03
32 | EPNSRYTYKLE [USH2A_Y3745] | inactive: 0.905 | inactive: 0.653 | inactive: 0.775 | inactive: 0.711 | inactive: 0.849 | inactive: 0.843
33 | DTFDPYLDVAL [USP36_Y268_YF] | inactive: 0.915 | inactive: 0.841 | inactive: 0.832 | inactive: 0.695 | inactive: 0.841 | inactive: 1.01
34 | SHNELYYEAAE [VANGL1_Y344_E347A] | inactive: 0.585 | inactive: 0.641 | inactive: 0.607 | inactive: 0.647 | inactive: 0.825 | inactive: 0.691
35 | GEETDYTPVWC [UROD_Y30] | inactive: 0.684 | inactive: 0.512 | inactive: 0.49 | inactive: 0.56 | inactive: 0.426 | inactive: 0.755
36 | TPGPNYRPGFN [USH2A_Y463_YF] | inactive: 0.74 | inactive: 0.579 | inactive: 0.817 | inactive: 0.78 | inactive: 0.587 | inactive: 0.849
37 | KNRDVYSSDYF [USP24_Y2134] | inactive: 0.848 | inactive: 0.762 | inactive: 0.69 | inactive: 0.687 | inactive: 0.715 | inactive: 0.823
